Laboratory results published in PubChem BioAssay AID1466 (National Center for Advancing Translational Sciences (NCATS), 2008).
In all, about 200,000 compounds went through this assay and about 10 (0.005%) were called active. Inconclusive means that the source gave no clear call. Such entries were picked first, then a sample of the others. The call rests on the fitted dose curve; in most records, active means well fitted inhibition curve with a large enough effect; inconclusive means small, poorly fitted or top-dose-only effect, or effect the other way, or another doubt; inactive means no such curve, though single readings can be large or run the other way. Potencies of inconclusive entries are left out as doubtful fits.

Target: Lysosomal alpha-glucosidase (Homo sapiens) (UniProt P10253)
Assay: qHTS Assay for Inhibitors of Human alpha-Glucosidase as a Potential Chaperone Treatment of Pompe Disease;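 on activity change, negative = inhibition: plate controls were uninhibited enzyme wells for no effect and no-enzyme background for full effect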
Settings: purified human GAA, 4-MU-alpha-glucoside fluorescence; activity change, negative = inhibition: at 76.9 µM (top of the series) unless noted
How it was run: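 Endpoint fluorogenic read: 20 min room-temperature reaction of 4 nM human alpha-glucosidase with 400 uM 4-methylumbelliferyl-alpha-D-pyranoside, pH 5.0, quenched with 1M NaOH/1M glycine pH 10. AC50 from Hill modeling.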
Potency means the concentration at half of the fitted maximal effect; tags describe the fitted curve by direction and shape.

With Cc1ccc(C(CC(=O)NCc2ccco2)c2ccc(OC(C)C)cc2)cc1 (centres undefined) as the compound, how does the Potency read?
Its Potency is inconclusive [inhibitor, single point].

CCCCS(=O)(=O)Nc1ccc(C)cn1 was tested. Which Potency did it give?
The Potency was inconclusive [inhibitor, single point].

With CCn1cc(C(=O)NCCCN2CCCC(C)C2)c(=O)c2cc(S(=O)(=O)N3CCc4ccccc4C3)ccc21 (centres undefined) as the compound, how does the Potency read?
The Potency was inconclusive [inhibitor, partial curve, poor fit].

C=CCSc1nccc(-c2cc(Cl)sc2Cl)n1 was tested. Which Potency did it give?
The Potency was inconclusive [inhibitor, single point].

How did the Potency turn out when O=C(CN(C(=O)Cn1nnc(-c2cccs2)n1)c1cnc2ccccc2c1)NCC1CCCO1 (centres undefined) was run?
Its Potency is inconclusive [inhibitor, partial curve].

How did the Potency turn out when O=C(CSc1ncccc1-c1nc2ccccc2[nH]1)N1CCN(c2ccccc2F)CC1 was run?
The Potency was inconclusive [activator, single point].

How did the Potency turn out when O=c1oc2ccc3ccccc3c2cc1-c1nnc(-c2cccs2)o1 was run?
Its Potency is inconclusive [activator, single point].

CCC(C(=O)O/N=C(\N)c1ccccc1)c1ccccc1 (centres undefined) was tested. Which Potency did it give?
The Potency was inconclusive [inhibitor, single point].

How did the Potency turn out when COc1cc(CN2CCCC(C(=O)c3ccc4c5c(cccc35)CC4)C2)cc(OC)c1O (centres undefined) was run?
The Potency was “inactive”.

With COc1ccc(Cl)cc1C(=O)Nc1nc2ccc(S(C)(=O)=O)cc2s1 as the compound, how does the Potency read?
Its Potency is inconclusive [inhibitor, single point].

For CCCCn1c(N)c(S(=O)(=O)c2ccc(C)cc2)c2nc3ccccc3nc21, which Potency is on record?
The Potency was inconclusive [activator, single point].

CCCn1c(N2CCN(S(=O)(=O)Cc3ccccc3)CC2)nc2ccccc21 was tested. Which Potency did it give?
Its Potency is inconclusive [inhibitor, single point].

Cc1ccc(-c2nc3cnccn3c2Nc2ccc3c(c2)OCO3)cc1 was tested. Which Potency did it give?
The Potency was inconclusive [inhibitor, single point].

How did the Potency turn out when O=C(Cn1nnc(-c2ccccc2)n1)N/N=C/c1ccc(-c2ccc(Cl)cc2)o1 was run?
The Potency was inconclusive [activator, single point].

COc1ccc(C(=O)Nc2cccc(C)c2)cc1 was tested. Which activity change, negative = inhibition did it give?
Its activity change, negative = inhibition is inconclusive: 10.9% [activator].

For CN(C)C=Nc1nc2ccccc2nc1N1CCCC1, which Potency is on record?
Its Potency is inconclusive [activator, single point].

With CCC(C)C(NS(=O)(=O)c1ccc(C)cc1)C(=O)Oc1ccc2c3c(c(=O)oc2c1)CCC3 (centres undefined) as the compound, how does the Potency read?
Its Potency is inconclusive [activator, partial curve].

COc1ccc(NC(=O)CSc2nc(C)c3c(c2C#N)CCCC3)cc1 was tested. Which activity change, negative = inhibition did it give?
The activity change, negative = inhibition was inconclusive: 15.5% [activator].

Which Potency does the source give for O=C(Nc1ccc(CSc2ccccc2)cc1)c1ccccc1 here?
The Potency was “inactive”.

How did the Potency turn out when CCN(CC(=O)Nc1ccccc1OC)CC(=O)Nc1sccc1C#N was run?
The Potency was inconclusive [inhibitor, partial curve].

For COc1cc2c(cc1OC)CN(c1ccc(-c3ccccc3OC)nn1)CC2, which Potency is on record?
Its Potency is inconclusive [inhibitor, single point].

CCOc1ccc(C(=O)NC(=S)Nc2ccccc2N2CCC(C)CC2)cc1[N+](=O)[O-] was tested. Which Potency did it give?
The Potency was inconclusive [inhibitor, full curve, poor fit].

For CCC(C)NC(=O)C(Sc1ccccc1)c1ccccc1 (centres undefined), which Potency is on record?
The Potency was inconclusive [inhibitor, single point].

How did the Potency turn out when CC1CCCCN1C(=O)c1ccc(C(=O)N2CCCCC2C)cc1 (centres undefined) was run?
The Potency was inconclusive [inhibitor, single point].

Which activity change, negative = inhibition does the source give for CC(Sc1n[nH]c(N)n1)C(=O)Nc1cccc(S(=O)(=O)N2CCOCC2)c1 (centres undefined) here?
Its activity change, negative = inhibition is inconclusive: -15.6% [inhibitor].

CC1=CC(c2ccccc2)n2nc(N3C(=O)C4CC=CCC4C3=O)nc2N1 (centres undefined) was tested. Which Potency did it give?
Its Potency is inconclusive [activator, single point].

How did the activity change, negative = inhibition turn out when COc1ccc(-c2cc(-c3ccccc3)nc(N3CCCC3)n2)cc1OC was run?
The activity change, negative = inhibition was inconclusive: 16.7% [activator].

With O=C(Nc1ccc(Cl)cc1)Nc1ccccc1C(=O)O as the compound, how does the activity change, negative = inhibition read?
The activity change, negative = inhibition was inconclusive: 11.8% [activator].

CCOc1ccc(NS(=O)(=O)c2ccc(NC(=O)c3cccnc3)c(OC)c2)cc1 was tested. Which Potency did it give?
The Potency was inconclusive [inhibitor, single point].

Which activity change, negative = inhibition does the source give for O=C(Nc1ccccc1)c1ccc(N2CCN(c3ccccn3)CC2)c(S(=O)(=O)N2CCOCC2)c1 here?
Its activity change, negative = inhibition is inconclusive: -16.6% [inhibitor].

For Cc1ccc(NC(=O)Cn2c(/C=C/c3ccccc3)nc3ccccc32)cc1C, which activity change, negative = inhibition is on record?
The activity change, negative = inhibition was inconclusive: 18.1% [activator].

For Cc1ccc(Cl)cc1N1CCN(C(c2cccnc2)c2nnnn2C2CCCCC2)CC1 (centres undefined), which activity change, negative = inhibition is on record?
Its activity change, negative = inhibition is inconclusive: -17.1% [inhibitor].

N#Cc1c(C(F)(F)F)cc(C2CC2)[nH]c1=O was tested. Which Potency did it give?
Its Potency is inconclusive [activator, partial curve].

How did the Potency turn out when O=C(/C=C\c1cccs1)c1c(O)ccc2ccc(=O)oc12 was run?
Its Potency is inconclusive [inhibitor, partial curve].

CN1CCc2cc3c(c4c2[C@H]1[C@H](O)c1ccccc1-4)OCO3 was tested. Which Potency did it give?
The Potency was “inactive”.

With CN1CCN(c2ccc([N+](=O)[O-])cc2NC(=O)c2ccccc2)CC1 as the compound, how does the Potency read?
The Potency was inconclusive [inhibitor, partial curve].

For COc1ccc(/C=N/NC(=O)c2nn(-c3ccccc3)c(=O)c3c(N)scc23)cc1, which Potency is on record?
The Potency was inconclusive [inhibitor, partial curve].

How did the activity change, negative = inhibition turn out when CC(=O)N(c1ccc2oc(=O)sc2c1)S(=O)(=O)c1ccccc1 was run?
Its activity change, negative = inhibition is inconclusive: -16.7% [inhibitor].

For c1ccc(Nc2nc(-c3cccs3)cs2)nc1, which Potency is on record?
The Potency was inconclusive [inhibitor, full curve].

O=C(CN1C(=O)c2ccccc2C1=O)N1CCN(c2ccccn2)CC1 was tested. Which activity change, negative = inhibition did it give?
Its activity change, negative = inhibition is inconclusive: 22.3% [activator].

How did the Potency turn out when COCCN1C(=O)c2oc3ccccc3c(=O)c2C1c1cccc(O)c1 (centres undefined) was run?
The Potency was inconclusive [inhibitor, single point].

How did the Potency turn out when O=C(NCCc1ccccc1)c1noc2c1CCCCC2 was run?
The Potency was inconclusive [inhibitor, single point].

Which Potency does the source give for CC1CN=C(Nc2cccc(S(=O)(=O)N(C)C)c2)S1 (centres undefined) here?
The Potency was inconclusive [inhibitor, single point].

For O=C1NC(=O)/C(=C\c2ccc(O)cc2O)S1, which Potency is on record?
Its Potency is inconclusive [inhibitor, full curve, poor fit].

Which Potency does the source give for COCc1cc(C)nc(N/N=C/c2ccc(-c3ccc(C(=O)O)c(Cl)c3)o2)c1C#N here?
Its Potency is inconclusive [inhibitor, full curve, poor fit].

c1ccc(C2(c3ccccc3)OCC(Cn3cncn3)O2)cc1 (centres undefined) was tested. Which Potency did it give?
The Potency was inconclusive [inhibitor, single point].

How did the Potency turn out when CCN(CC)c1cc(Oc2ccccc2)ncn1 was run?
The Potency was “inactive”.

Cc1ccc2cccc(OC(=O)c3ccc4c(c3)OCCO4)c2n1 was tested. Which Potency did it give?
The Potency was inconclusive [inhibitor, partial curve].

O=C1c2cccc3cccc(c23)C(=O)N1c1nncs1 was tested. Which Potency did it give?
The Potency was inconclusive [inhibitor, partial curve, poor fit].

For CCOC(=O)c1ccc(S(=O)(=O)Nc2nc3cc(S(=O)(=O)NC4=NCCCCC4)ccc3s2)cc1, which Potency is on record?
The Potency was inconclusive [inhibitor, partial curve].

For Cc1nc2ncnn2c(C)c1CCC(=O)NC(C)CCc1ccco1 (centres undefined), which Potency is on record?
The Potency was inconclusive [inhibitor, full curve, poor fit].

For COc1ccnc(Oc2ccccc2)c1C(=O)N/C=N/OCc1ccc(F)cc1Cl, which Potency is on record?
The Potency was inconclusive [inhibitor, partial curve].

How did the Potency turn out when O=C(CSc1nc(-c2ccccc2)c(-c2ccccc2)o1)Nc1nnc(-c2ccccc2)s1 was run?
Its Potency is inconclusive [inhibitor, partial curve].

For O=C(COC(=O)C(Cc1ccccc1)NC(=O)c1ccco1)NC1CC1 (centres undefined), which Potency is on record?
The Potency was inconclusive [inhibitor, partial curve, poor fit].

How did the Potency turn out when COC(=O)c1cc(C(=O)OCC(=O)N(C)C2CCS(=O)(=O)C2)cc([N+](=O)[O-])c1 (centres undefined) was run?
The Potency was inconclusive [inhibitor, single point].

For Cc1cc(C)nc(NS(=O)(=O)c2ccc(Br)cc2)n1, which Potency is on record?
Its Potency is inconclusive [inhibitor, single point].

CCCCS(=O)(=O)NC1=NCN(CCO)CN1 was tested. Which Potency did it give?
The Potency was inconclusive [inhibitor, single point].

Which Potency does the source give for COc1ccc(-n2c(SCC(=O)C(C)(C)C)nc3ccsc3c2=O)cc1 here?
Its Potency is inconclusive [inhibitor, partial curve].

With COc1ccc(C)cc1NC(=O)CN1CCN(C/C=C/c2ccccc2)CC1 as the compound, how does the Potency read?
Its Potency is inconclusive [inhibitor, single point].

With COC(=O)CC[C@@H](C(=O)O)N1C(=O)c2ccccc2C1=O as the compound, how does the Potency read?
The Potency was “inactive”.

Which Potency does the source give for CCOc1cc(C(=O)OCC(=O)c2c(C)[nH]c3ccccc23)ccc1OCC(=O)N1CCOCC1 here?
Its Potency is inconclusive [inhibitor, single point].

With O=C(CCCc1ccccc1)Nc1ccccn1 as the compound, how does the Potency read?
The Potency was inconclusive [inhibitor, partial curve, poor fit].

With C/C=C(/C)C(=O)OC1c2c(ccc3ccc(=O)oc23)OC(C)(C)C1OC(C)=O (centres undefined) as the compound, how does the Potency read?
The Potency was inconclusive [inhibitor, single point].

Which Potency does the source give for Cc1c(/C=N/Nc2ccc(F)cc2)c(O)n(C)c(=O)c1C#N here?
Its Potency is “inactive”.
